B1: G-protein coupled receptor 143 (Homo sapiens), P51810 (parent)
chain: MASPRLGTFCCPTRDAATQLVLSFQPRAFHALCLGSGGLRLALGLLQLLPGRRPAGPGSPATSPPASVRILRAAAACDLLGCLGMVIRSTVWLGFPNFVDSVSDMNHTEIWPAAFCVGSAMWIQLLYSACFWWLFCYAVDAYLVIRRSAGLSTILLYHIMAWGLATLLCVEGAAMLYYPSVSRCERGLDHAIPHYVTMYLPLLLVLVANPILFQKTVTAVASLLKGRQGIYTENERRMGAVIKIRFFKIMLVLIICWLSNIINESLLFYLEMQTDINGGSLKPVRTAAKTTWFIMGILNPAQGFLLSLAFYGWTGCSLGFQSPRKEIQWESLTTSAAEGAHPSPLMPHENPASGKVSQVGGQTSDEALSMLSEGSDASTIEIHTASESCNKNEGDPALPTHGDL

What was measured:
drd3_human DRD3, P35462 = variants of: B1; conditions: with drd3_human DRD3, P35462
drd2_human DRD2, P14416 [1] = variants of: B1; conditions: with drd2_human DRD2, P14416
drd2_human DRD2, P14416 [2] = variants of: B1; conditions: with drd2_human DRD2, P14416; remark: listed apart in the source

effect of a mutation on the interaction (drd3_human DRD3, P35462) | effect of a mutation on the interaction (drd2_human DRD2, P14416 [1]) | effect of a mutation on the interaction (drd2_human DRD2, P14416 [2]) | Variant
with no effect | with no effect |  | W329A;E330A
with no effect | with no effect | with no effect | L223A;L224A
